We go through 45 compounds from PMC4336329 (PLoS ONE, 2015).

Structures are written as SMILES. Hit rate of the full screen: of about 310,000 compounds, about 2,200 (0.71%) showed an effect of 50% or more. Effects have a minus sign here. The list shows a part of the results.

The target of this test is human ether-à-go-go-related gene (hERG) potassium channel (human, UniProt Q12809). Kind of test: primary screen, population patch clamp on CHO cells stably expressing hERG.
Chain of human ether-à-go-go-related gene (hERG) potassium channel (Q12809 whole entry, looked up): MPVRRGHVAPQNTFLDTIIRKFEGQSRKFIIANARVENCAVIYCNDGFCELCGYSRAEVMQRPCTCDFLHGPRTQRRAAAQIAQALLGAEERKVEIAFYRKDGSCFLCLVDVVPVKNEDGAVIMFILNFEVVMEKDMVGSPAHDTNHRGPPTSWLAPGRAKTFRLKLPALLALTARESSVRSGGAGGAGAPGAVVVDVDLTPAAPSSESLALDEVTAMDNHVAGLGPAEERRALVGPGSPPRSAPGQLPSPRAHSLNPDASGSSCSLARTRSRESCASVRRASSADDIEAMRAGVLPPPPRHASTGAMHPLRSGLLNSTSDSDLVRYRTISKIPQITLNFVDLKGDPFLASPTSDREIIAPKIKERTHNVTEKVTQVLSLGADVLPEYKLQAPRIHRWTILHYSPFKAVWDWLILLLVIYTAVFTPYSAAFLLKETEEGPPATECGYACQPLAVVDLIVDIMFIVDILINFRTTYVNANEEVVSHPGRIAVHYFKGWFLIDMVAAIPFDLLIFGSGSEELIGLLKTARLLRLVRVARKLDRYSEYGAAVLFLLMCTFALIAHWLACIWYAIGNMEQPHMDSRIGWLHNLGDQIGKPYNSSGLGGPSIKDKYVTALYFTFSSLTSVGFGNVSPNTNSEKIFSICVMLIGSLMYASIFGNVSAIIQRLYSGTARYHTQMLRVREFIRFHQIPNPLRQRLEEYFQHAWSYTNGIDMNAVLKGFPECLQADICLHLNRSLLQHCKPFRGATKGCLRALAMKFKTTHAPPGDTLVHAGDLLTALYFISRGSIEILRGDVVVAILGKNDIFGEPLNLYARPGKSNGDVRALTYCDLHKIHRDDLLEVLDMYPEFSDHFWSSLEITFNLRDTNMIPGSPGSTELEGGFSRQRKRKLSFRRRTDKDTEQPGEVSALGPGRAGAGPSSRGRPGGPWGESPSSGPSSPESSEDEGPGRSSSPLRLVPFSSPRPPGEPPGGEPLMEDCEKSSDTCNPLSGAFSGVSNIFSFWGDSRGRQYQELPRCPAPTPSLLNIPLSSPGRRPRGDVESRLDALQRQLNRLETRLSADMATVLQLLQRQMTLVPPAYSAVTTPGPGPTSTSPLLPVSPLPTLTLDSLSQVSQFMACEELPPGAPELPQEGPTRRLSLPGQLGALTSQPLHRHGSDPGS
On to `O=C(Cc1ccccc1)NNC1=NS(=O)(=O)c2ccccc21`, for which the “hERG current change (%, negative = inhibition) at 1uM” value was 10.2%.

As to `O=C1CCCN1c1ncc(S(=O)(=O)c2ccc([N+](=O)[O-])cc2)s1`, the “hERG current change (%, negative = inhibition) at 1uM” value turned out to be 12.1%.

Consider `O=C(CNCc1ccccc1)Nc1ccc(Cl)cc1`, for which the “hERG current change (%, negative = inhibition) at 1uM” value was found to be 10.7%. With `COC(=O)C1CCN(c2cc(=O)n(C3CCCCC3)c(=O)[nH]2)CC1`, the “hERG current change (%, negative = inhibition) at 1uM” value is -0.0859%. On to `CCc1ccc(CNCCSc2nnnn2C)cc1.Cl`, for which the “hERG current change (%, negative = inhibition) at 1uM” value was determined as 6.5%. In the case of `CC(O)Cn1cnc2c1c(=O)n(C)c(=O)n2C` (stereo not drawn), the “hERG current change (%, negative = inhibition) at 1uM” value is recorded as -2.32%. For `O=C(COC(=O)c1cccc(S(=O)(=O)N2CCc3ccccc32)c1)NC1CCS(=O)(=O)C1` (stereo not drawn), the “hERG current change (%, negative = inhibition) at 1uM” value was found to be 6.17%.

For `CCOc1ccccc1NC(=O)CSc1nnnn1Cc1ccccc1`, the “hERG current change (%, negative = inhibition) at 1uM” value is reported as -15.2%. On to `CCc1nnc(NC(=O)c2ccc(S(=O)(=O)N(CCOC)CCOC)cc2)o1`, for which the “hERG current change (%, negative = inhibition) at 1uM” value worked out at 8.69%. For `O=C(NC1CCCC1)c1ccc(CSCc2ccccc2F)o1`, the “hERG current change (%, negative = inhibition) at 1uM” value is reported as -12.9%. The same measure for `COc1ccc(CCn2c(O)c(C=NCc3cccnc3)c(=O)[nH]c2=O)cc1OC`: 9.37%. As to `CCOc1ccc(S(=O)(=O)Nc2ccc(C(=O)N(C)CC(=O)Nc3ccc(OC)cc3)cc2)cc1`, the “hERG current change (%, negative = inhibition) at 1uM” value was 17.2%.

In the case of `O=C1NC(c2ccc(Br)cc2)Nc2ccccc21` (stereo not drawn), the “hERG current change (%, negative = inhibition) at 1uM” value is recorded as 11.2%. For `O=C(COc1ccccc1)Nc1cccc(-c2cn3cccnc3n2)c1`, the “hERG current change (%, negative = inhibition) at 1uM” value is reported as 6.7%. Consider `Cc1ccccc1C(=O)Nc1ccnn1C1CCN(C(=O)C2CCOC2)CC1` (stereo not drawn), for which the “hERG current change (%, negative = inhibition) at 1uM” value is -2.54%. Next, `Cc1cccc(NC(=S)N(C)C)c1C`: -3.81%. As to `COC(=O)[C@H]1C[C@@H]1[C@H](NS(=O)(=O)c1ccc2ccccc2c1)c1ccccc1`, the “hERG current change (%, negative = inhibition) at 1uM” value came out at 11.4%. For the compound `Cc1cc(C)c(S(=O)(=O)NCc2ccc3c(c2)OCO3)c(C)c1`, the “hERG current change (%, negative = inhibition) at 1uM” value worked out at 14.5%. As to `Nn1c(SCC(=O)NC(=O)NCc2ccco2)nnc1-c1ccc(OC(F)F)cc1`, the “hERG current change (%, negative = inhibition) at 1uM” value was -18.8%. As for `C#CCn1cc(/C=N/NC(=O)COc2cccc3cccnc23)c2ccccc21`, the “hERG current change (%, negative = inhibition) at 1uM” value was found to be 15.4%. Consider `Cc1cc(=O)[nH]c(SCc2cccc3cccnc23)n1`, for which the “hERG current change (%, negative = inhibition) at 1uM” value was 10.7%.

`Cc1ccc(SCCC(=O)Nc2ccc(Br)c(C)c2)cc1`: the “hERG current change (%, negative = inhibition) at 1uM” value was determined as 15.3%.

As to `COc1ccc(N=CC2=C(O)c3ccccc3C2=O)c(OC)c1`, the “hERG current change (%, negative = inhibition) at 1uM” value is reported as 10.9%.

Consider `O=C(Nc1ccccc1)N(C1=NCCC1)c1ccccc1`, for which the “hERG current change (%, negative = inhibition) at 1uM” value came out at 5.03%. On to `O=C(CN1CCN(c2ccccc2O)CC1)Nc1ccnn1C1CCCC1`, for which the “hERG current change (%, negative = inhibition) at 1uM” value turned out to be 11%.

On to `COc1ccc(C(CNC(=O)Cn2[nH]c(=O)c3ccccc3c2=O)N2CCCC2)cc1` (stereo not drawn), for which the “hERG current change (%, negative = inhibition) at 1uM” value is listed as 10.5%. As to `O=C(COC(=O)C1CCCC1)Nc1ncc(Cl)cc1Cl`, the “hERG current change (%, negative = inhibition) at 1uM” value was 10.6%. For `O=C(N/C(=C/c1ccccc1)C(=O)N1CCCCCC1)c1ccccc1`, the “hERG current change (%, negative = inhibition) at 1uM” value was found to be 3.92%. Next, `COc1ccc(NC(=O)COC(=O)C2CCC2)cc1Cl`: 1.51%; `CC1=C(C(=O)OCC2CCCO2)C(c2ccsc2)C2=C(CCCC2=O)N1` (stereo not drawn): -0.424%; `COCc1cc(=O)[nH]c(/N=C(\N)Nc2c(F)cccc2F)n1`: 5.55%.

Regarding `COc1ccc(CNC(=O)/C(C#N)=C/c2cccc(OC)c2OC)cc1`, the “hERG current change (%, negative = inhibition) at 1uM” value is 3.56%. Take `O=C(CN1C(=O)c2ccccc2S1(=O)=O)NCCSC1CCCCC1`: the “hERG current change (%, negative = inhibition) at 1uM” value is reported as -8.06%.

Consider `CCC(=O)N1CCc2cc(S(=O)(=O)NCCCN(CC)Cc3ccccc3)ccc21`, for which the “hERG current change (%, negative = inhibition) at 1uM” value is recorded as 5.37%. As for `COc1ccc(OC)c(NC(=O)c2cccc3c2C(=O)N(C2CCCCC2)C3)c1`, the “hERG current change (%, negative = inhibition) at 1uM” value amounted to 11.7%. Regarding `O=C(CN1C(=O)CSc2ccc(S(=O)(=O)N3CCOCC3)cc21)NCc1ccc(F)cc1`, the “hERG current change (%, negative = inhibition) at 1uM” value is 3.87%. With `CN(C)NC(=S)Nc1ccc(S(=O)(=O)N2CCCCC2)cc1`, the “hERG current change (%, negative = inhibition) at 1uM” value is 5%. Regarding `Nc1nonc1-n1nnc(C(=O)N/N=C/c2ccc(F)cc2)c1-c1cccs1`, the “hERG current change (%, negative = inhibition) at 1uM” value is recorded as 12.4%. `Cc1cc(NC(=O)c2cccc(S(=O)(=O)N3CCOCC3)c2)no1`: the “hERG current change (%, negative = inhibition) at 1uM” value stood at 19.1%.

As for `CCc1ccc(S(=O)(=O)NC(CC(=O)O)c2ccccc2)cc1` (stereo not drawn), the “hERG current change (%, negative = inhibition) at 1uM” value is given as 5.12%. In the case of `COc1ccc(OC)c(C(c2nnnn2CCC(C)C)N2CCN(C(=O)c3ccco3)CC2)c1` (stereo not drawn), the “hERG current change (%, negative = inhibition) at 1uM” value is recorded as -16%. `CCc1nc2ccccc2n1CC(=O)N1CCN(S(=O)(=O)c2cccc(C(F)(F)F)c2)CC1`: the “hERG current change (%, negative = inhibition) at 1uM” value amounted to 8.98%. Consider `CC(OC(=O)Cn1cnc2c1c(=O)n(C)c(=O)n2C)C(=O)Nc1ccc(Cl)cc1` (stereo not drawn), for which the “hERG current change (%, negative = inhibition) at 1uM” value came to 5.77%. For `CCc1cc(C(=O)Cc2nc3ccccc3s2)c(O)cc1OCC(=O)O`, the “hERG current change (%, negative = inhibition) at 1uM” value worked out at 11%. Take `COc1ccccc1Nc1nnc(SCC(=O)NC2CC2)s1`: the “hERG current change (%, negative = inhibition) at 1uM” value is recorded as 1.23%.
